Drawing on publication PMC9911399, “Two distinct binding modes provide the RNA-binding protein RbFox with extraordinary sequence specificity”, this text covers binding signal for 31 molecules.

To fix the notation:
T1: RBFOX1 RRM (Homo sapiens, UniProt Q9NWB1 109-208)
T1 sequence: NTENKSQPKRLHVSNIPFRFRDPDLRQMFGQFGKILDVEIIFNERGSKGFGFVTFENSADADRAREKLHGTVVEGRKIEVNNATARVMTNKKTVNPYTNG

B1: AUAGUCU (DNA:RNA)
RNA: GGGAGACCGGAAUUCAGAUUGUCCAUAGUCUUUAAAUCCCGUCGUAGCCACCA
DNA 1: CAATCTGAATTCCGGTCTCCC
DNA 2: TGGTGGCTACGACGGGATT
B2: CGGCUGU (DNA:RNA)
RNA: B1 RNA with A25C, U26G, A27G, G28C, C30G
DNA 1: CAATCTGAATTCCGGTCTCCC
DNA 2: TGGTGGCTACGACGGGATT
B3: UCUGUGC (DNA:RNA)
RNA: B1 RNA with A25U, U26C, A27U, C30G, U31C
DNA 1: CAATCTGAATTCCGGTCTCCC
DNA 2: TGGTGGCTACGACGGGATT
B4: AAACGAA (DNA:RNA)
RNA: B1 RNA with U26A, G28C, U29G, C30A, U31A
DNA 1: CAATCTGAATTCCGGTCTCCC
DNA 2: TGGTGGCTACGACGGGATT
B5: ACACGGC (DNA:RNA)
RNA: B1 RNA with U26C, G28C, U29G, C30G, U31C
DNA 1: CAATCTGAATTCCGGTCTCCC
DNA 2: TGGTGGCTACGACGGGATT
B6: CUGCAGU (DNA:RNA)
RNA: B1 RNA with A25C, A27G, G28C, U29A, C30G
DNA 1: CAATCTGAATTCCGGTCTCCC
DNA 2: TGGTGGCTACGACGGGATT
B7: GAGUGUG (DNA:RNA)
RNA: GGGAGACCGGAAUUCAGAUUGUCCGAGUGUGUUAAAUCCCGUCGUAGCCACCA
DNA 1: CAATCTGAATTCCGGTCTCCC
DNA 2: TGGTGGCTACGACGGGATT
B8: UACGUCC (DNA:RNA)
RNA: B1 RNA with A25U, U26A, A27C, U31C
DNA 1: CAATCTGAATTCCGGTCTCCC
DNA 2: TGGTGGCTACGACGGGATT
B9: UAAAAGC (DNA:RNA)
RNA: B1 RNA with A25U, U26A, G28A, U29A, C30G, U31C
DNA 1: CAATCTGAATTCCGGTCTCCC
DNA 2: TGGTGGCTACGACGGGATT
B10: CCAUACG (DNA:RNA)
RNA: B1 RNA with A25C, U26C, G28U, U29A, U31G
DNA 1: CAATCTGAATTCCGGTCTCCC
DNA 2: TGGTGGCTACGACGGGATT
B11: ACCAUAC (DNA:RNA)
RNA: B1 RNA with U26C, A27C, G28A, C30A, U31C
DNA 1: CAATCTGAATTCCGGTCTCCC
DNA 2: TGGTGGCTACGACGGGATT
B12: AGGAGGC (DNA:RNA)
RNA: B7 RNA with G25A, A26G, U28A, U30G, G31C
DNA 1: CAATCTGAATTCCGGTCTCCC
DNA 2: TGGTGGCTACGACGGGATT
B13: GUCAUUC (DNA:RNA)
RNA: B1 RNA with A25G, A27C, G28A, C30U, U31C
DNA 1: CAATCTGAATTCCGGTCTCCC
DNA 2: TGGTGGCTACGACGGGATT
B14: GGGUUGG (DNA:RNA)
RNA: B7 RNA with A26G, G29U, U30G
DNA 1: CAATCTGAATTCCGGTCTCCC
DNA 2: TGGTGGCTACGACGGGATT
B15: CUGGUUC (DNA:RNA)
RNA: B1 RNA with A25C, A27G, C30U, U31C
DNA 1: CAATCTGAATTCCGGTCTCCC
DNA 2: TGGTGGCTACGACGGGATT
B16: AGUACGC (DNA:RNA)
RNA: B1 RNA with U26G, A27U, G28A, U29C, C30G, U31C
DNA 1: CAATCTGAATTCCGGTCTCCC
DNA 2: TGGTGGCTACGACGGGATT
B17: GAACAAA (DNA:RNA)
RNA: B7 RNA with G27A, U28C, G29A, U30A, G31A
DNA 1: CAATCTGAATTCCGGTCTCCC
DNA 2: TGGTGGCTACGACGGGATT
B18: ACCACUA (DNA:RNA)
RNA: B1 RNA with U26C, A27C, G28A, U29C, C30U, U31A
DNA 1: CAATCTGAATTCCGGTCTCCC
DNA 2: TGGTGGCTACGACGGGATT
B19: AGCAGCU (DNA:RNA)
RNA: B1 RNA with U26G, A27C, G28A, U29G
DNA 1: CAATCTGAATTCCGGTCTCCC
DNA 2: TGGTGGCTACGACGGGATT
B20: GAUACGC (DNA:RNA)
RNA: B7 RNA with G27U, U28A, G29C, U30G, G31C
DNA 1: CAATCTGAATTCCGGTCTCCC
DNA 2: TGGTGGCTACGACGGGATT
B21: GCGACCC (DNA:RNA)
RNA: B7 RNA with A26C, U28A, G29C, U30C, G31C
DNA 1: CAATCTGAATTCCGGTCTCCC
DNA 2: TGGTGGCTACGACGGGATT
B22: GUCCGAC (DNA:RNA)
RNA: B7 RNA with A26U, G27C, U28C, U30A, G31C
DNA 1: CAATCTGAATTCCGGTCTCCC
DNA 2: TGGTGGCTACGACGGGATT
B23: UCUCGAC (DNA:RNA)
RNA: B7 RNA with G25U, A26C, G27U, U28C, U30A, G31C
DNA 1: CAATCTGAATTCCGGTCTCCC
DNA 2: TGGTGGCTACGACGGGATT
B24: CGGCAAU (DNA:RNA)
RNA: B1 RNA with A25C, U26G, A27G, G28C, U29A, C30A
DNA 1: CAATCTGAATTCCGGTCTCCC
DNA 2: TGGTGGCTACGACGGGATT
B25: UUUACUU (DNA:RNA)
RNA: B1 RNA with A25U, A27U, G28A, U29C, C30U
DNA 1: CAATCTGAATTCCGGTCTCCC
DNA 2: TGGTGGCTACGACGGGATT
B26: CUUGACA (DNA:RNA)
RNA: B1 RNA with A25C, A27U, U29A, U31A
DNA 1: CAATCTGAATTCCGGTCTCCC
DNA 2: TGGTGGCTACGACGGGATT
B27: UUGUGAC (DNA:RNA)
RNA: B7 RNA with G25U, A26U, U30A, G31C
DNA 1: CAATCTGAATTCCGGTCTCCC
DNA 2: TGGTGGCTACGACGGGATT
B28: UACUUUC (DNA:RNA)
RNA: B7 RNA with G25U, G27C, G29U, G31C
DNA 1: CAATCTGAATTCCGGTCTCCC
DNA 2: TGGTGGCTACGACGGGATT
B29: GAUGGGU (DNA:RNA)
RNA: B7 RNA with G27U, U28G, U30G, G31U
DNA 1: CAATCTGAATTCCGGTCTCCC
DNA 2: TGGTGGCTACGACGGGATT
B30: CACCAAU (DNA:RNA)
RNA: B1 RNA with A25C, U26A, A27C, G28C, U29A, C30A
DNA 1: CAATCTGAATTCCGGTCTCCC
DNA 2: TGGTGGCTACGACGGGATT
B31: AUCGCCA (DNA:RNA)
RNA: B1 RNA with A27C, U29C, U31A
DNA 1: CAATCTGAATTCCGGTCTCCC
DNA 2: TGGTGGCTACGACGGGATT

Where a chain is given by its changes, count along the chain named. The list shows a part of the results.

The assay addresses T1, RBFOX1 RRM. Description: EMSA; HiTS-Eq, 1 nM pool, 10 min; buffer printed only for the single-RNA assays: 10 mM Tris pH 7.5, 150 mM NaCl, 3.4 mM EDTA, 0.001% NP-40, 30 C. Conditions: tags: His6 N-terminal (pET28a); label: 5' 32P. In outline: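 Purified RbFox RRM (wild type or mutant) was equilibrated for 10 min in 50 µL with 1 nM of a 5′-radiolabelled pool of RNA with 7 randomized nucleotides, its flanks annealed to DNA oligonucleotides, across increasing protein concentrations. Free RNA was separated by 8% native PAGE, excised, reverse-transcribed, PCR-barcoded and sequenced on an Illumina HiSeq 2500. Relative association constants came from read-count changes of each variant against the control reaction, normalised to the cognate motif.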
In the case of B1, the binding signal is 0.00479 KA relative to UGCAUGU.

Turning to B2, the binding signal is 0.0179 KA relative to UGCAUGU. On to B3, for which the binding signal was 0.0224 KA relative to UGCAUGU. Next, B4: 0.00334 KA relative to UGCAUGU; B5: 0.00691 KA relative to UGCAUGU; B6: 0.0173 KA relative to UGCAUGU. Regarding B7, the binding signal is 0.0206 KA relative to UGCAUGU. Regarding B8, the binding signal was 0.00511 KA relative to UGCAUGU. In the case of B9, the binding signal was 0.004 KA relative to UGCAUGU.

As for B10, the binding signal was 0.00177 KA relative to UGCAUGU. As for B11, the binding signal was 0.000123 KA relative to UGCAUGU.

With B12, the binding signal was 0.0129 KA relative to UGCAUGU.

For B13, the binding signal is 0.00982 KA relative to UGCAUGU. As for B14, the binding signal was 0.0265 KA relative to UGCAUGU. Next, B15: 0.0321 KA relative to UGCAUGU; B16: 0.0101 KA relative to UGCAUGU.

Regarding B17, the binding signal was 0.00175 KA relative to UGCAUGU. Next, B18: 0.00145 KA relative to UGCAUGU; B19: 0.00711 KA relative to UGCAUGU; B20: 0.012 KA relative to UGCAUGU. Next, B21: 0.00921 KA relative to UGCAUGU; B22: 0.0143 KA relative to UGCAUGU. As for B23, the figure is 0.00586 KA relative to UGCAUGU. With B24, the binding signal was 0.0116 KA relative to UGCAUGU. Next, B25: 0.00634 KA relative to UGCAUGU; B26: 0.00564 KA relative to UGCAUGU; B27: 0.00519 KA relative to UGCAUGU. For B28, the binding signal is 0.00618 KA relative to UGCAUGU. B29: the binding signal is 0.0161 KA relative to UGCAUGU. As for B30, the figure is 0.001 KA relative to UGCAUGU; as for B31, 0.00202 KA relative to UGCAUGU.
